# About 31,000 (8.9%) of roughly 350,000 compounds were called active. The inconclusive results got no clear call from the source; some entries with a clear call stand among them for comparison. Calls come from the whole dose curve; as a rule, active = well fitted inhibition curve with a large enough effect; inconclusive = small, poorly fitted or top-dose-only effect; inactive = no such curve, though single readings can be large or run the other way. Where the call is inconclusive, the potency comes from a doubtful curve fit.
# Biological target: Histone-lysine N-methyltransferase EHMT2 (Homo sapiens) (UniProt Q96KQ7)
# UniProt Q96KQ7, sequence (Q96KQ7 whole entry, looked up): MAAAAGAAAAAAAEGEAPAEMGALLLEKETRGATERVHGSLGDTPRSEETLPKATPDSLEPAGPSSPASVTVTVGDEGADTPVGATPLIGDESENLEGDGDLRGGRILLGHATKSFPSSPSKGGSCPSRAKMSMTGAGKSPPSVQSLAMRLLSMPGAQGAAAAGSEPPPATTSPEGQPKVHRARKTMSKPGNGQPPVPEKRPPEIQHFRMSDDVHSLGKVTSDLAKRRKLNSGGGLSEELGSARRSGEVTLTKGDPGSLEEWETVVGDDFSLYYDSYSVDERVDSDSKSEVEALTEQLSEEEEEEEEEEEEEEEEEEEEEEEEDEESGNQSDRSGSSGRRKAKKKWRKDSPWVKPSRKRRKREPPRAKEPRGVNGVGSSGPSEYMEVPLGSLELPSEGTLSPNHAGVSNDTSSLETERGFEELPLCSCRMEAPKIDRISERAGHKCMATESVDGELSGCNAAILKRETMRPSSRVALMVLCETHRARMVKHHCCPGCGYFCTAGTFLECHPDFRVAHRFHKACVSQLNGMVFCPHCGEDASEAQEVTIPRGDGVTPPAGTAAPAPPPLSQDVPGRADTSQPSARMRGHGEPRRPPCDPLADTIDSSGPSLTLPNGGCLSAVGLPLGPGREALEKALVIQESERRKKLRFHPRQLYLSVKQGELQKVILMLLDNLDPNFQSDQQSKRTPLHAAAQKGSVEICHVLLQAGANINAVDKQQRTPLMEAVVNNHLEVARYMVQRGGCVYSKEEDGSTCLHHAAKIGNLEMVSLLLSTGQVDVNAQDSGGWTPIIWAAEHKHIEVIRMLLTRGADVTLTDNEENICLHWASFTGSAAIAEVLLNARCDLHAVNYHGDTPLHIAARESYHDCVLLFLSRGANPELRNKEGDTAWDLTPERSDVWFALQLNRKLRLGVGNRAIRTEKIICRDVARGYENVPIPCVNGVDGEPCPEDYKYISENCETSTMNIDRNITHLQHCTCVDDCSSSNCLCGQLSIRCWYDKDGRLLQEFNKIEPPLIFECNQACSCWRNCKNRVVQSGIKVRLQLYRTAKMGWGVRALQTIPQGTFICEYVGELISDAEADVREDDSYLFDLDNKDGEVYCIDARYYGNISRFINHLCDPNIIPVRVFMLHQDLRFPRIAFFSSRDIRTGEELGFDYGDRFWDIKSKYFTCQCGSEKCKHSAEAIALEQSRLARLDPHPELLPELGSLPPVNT
# Assay: qHTS Assay for Inhibitors of Histone Lysine Methyltransferase G9a; note: nearly all actives have a fitted effect of over 75% in size
# Details: G9a H3K9 monomethylation, AlphaScreen, 2 h; activity, negative = inhibition: at 59 µM (top of the series) unless noted
# Outline: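 Step 1: enzyme (final 20 nM) with compound, 15 min RT. Step 2: substrate peptide 500 nM and SAM 20 uM, 2 h RT. Step 3: anti-H3K9me1 antibody and AlphaScreen beads, 10 min, then plate read.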
# % is set by controls: 0 for no effect and ±100 for the full control effect; potency is the fitted concentration of half-maximal effect; tags give direction and shape of the fitted curve.
SMILES,Potency,"activity, negative = inhibition"
CCOC(=O)N1CCN(Cc2oc(CO)cc(=O)c2O)CC1,"inconclusive: 22.4 µM [inhibitor, single point]",–
CC(CCc1ccccc1)NC(=O)COC(=O)c1cccn1C (stereo unspecified),–,inactive: 0.814% [at 12.7 µM]
Cc1cccc(Nc2n[nH]c(=S)s2)c1C,"inconclusive: 1 µM [inhibitor, single point]",–
COc1cccc(CNC(=O)CCNC(=O)C2CCN(S(=O)(=O)c3ccccc3)CC2)c1,"inconclusive: 39.8 µM [inhibitor, single point]",–
CN(C)S(=O)(=O)c1cc(NC(=O)CN2CCN(c3ccccc3O)CC2)ccc1Cl,"inconclusive: 35.5 µM [inhibitor, partial curve, poor fit]",–
C/C(Cc1ccccc1)=N\NC(=O)CNC(=O)c1ccc(Cl)cc1Cl,–,inactive: 31.1% [at 102 µM]
O=C1NN(c2ccccc2)C(=O)/C1=C\c1ccccc1,active: 39.8 µM,–
COc1cc(C(=O)N/N=C/c2cc([N+](=O)[O-])cs2)cc(OC)c1OC,"inconclusive: 89.1 µM [inhibitor, single point]",–
CCN(CC)CCNC(=O)CS(=O)Cc1nc(-c2ccc(C)cc2)oc1C (stereo unspecified),–,inconclusive: -82.3% [inhibitor] [at 102 µM]
COc1ccc(CCNC(=O)c2cc(-c3ccc(C)cc3)nc3n[nH]c(-c4ccc(F)cc4)c23)cc1OC,–,inactive: 39.9%
O=S(=O)(NC1CCCC1)c1cccc(S(=O)(=O)N2CCC(n3nnc4ccccc43)CC2)c1,"inconclusive: 22.4 µM [inhibitor, partial curve, poor fit]",–
Cn1c(Cc2ccccc2)n[nH]c1=S,active: 10 µM,–
O=C(CCSCCc1ccccn1)Nc1ccccc1C(F)(F)F,–,inactive: 3.18%
COc1cccc(OCCn2c(-c3ccc(Cl)cc3)nc3ccccc3c2=O)c1,–,inactive: -26.5%
Cc1ccccc1-c1nc(CS(=O)(=O)CC(=O)NCc2ccco2)c(C)o1,"inconclusive: 50.1 µM [inhibitor, partial curve, poor fit]",–
COc1ccc(S(=O)(=O)N2CCOCC2)cc1NC(=O)CN1CCN(C)CC1,–,inactive: -11.5%
Cc1nnc(N(Cc2ccco2)C(=O)c2cccc(C#N)c2)s1,–,inactive: -19.1% [at 12.7 µM]
CC1CCCN(c2c([N+](=O)[O-])c(=O)oc3ccccc23)C1 (stereo unspecified),active: 44.7 µM,–
S=c1[nH]nc(COc2ccc(Cl)cc2)n1Cc1ccco1,active: 3.55 µM,–
Cc1ccc2nc(N3C(=O)C(O)=C(C(=O)c4ccco4)C3c3ccc(O)cc3)sc2c1 (stereo unspecified),active: 22.4 µM,–
COc1ccc(OC)c(NC(=O)c2cc3n(n2)C(C(F)(F)F)CC(c2ccc4c(c2)OCO4)N3)c1 (stereo unspecified),"inconclusive: 39.8 µM [inhibitor, single point]",–
O=C(COC(=O)c1cc[n+]([O-])cc1)Nc1cccc(Br)c1,"inconclusive: 50.1 µM [inhibitor, partial curve]",–
C[C@H](NC(=O)c1ccc2ccccc2c1)C(=O)N1CCC2(CC1)NCCc1[nH]cnc12,"inconclusive: 89.1 µM [inhibitor, single point]",–

SMILES,Potency,"activity, negative = inhibition"
COc1ccc(NCN2C(=O)CCC2=O)cc1,"inconclusive: 8.91 µM [inhibitor, partial curve, poor fit]",–
COc1cc(OC)c(NC(=O)Cn2c(=O)nc(-c3ccccc3)c3ccccc32)cc1Cl,–,inactive: -8.86%
COc1ccc(CCNc2nc3ccccc3n3cnnc23)cc1OC,–,inactive: 20.8% [at 102 µM]
C#CCOC(=O)C[N+](C)(C)C/C=C/c1ccccc1,"inconclusive: 89.1 µM [inhibitor, single point]",–
Cc1ccc(N2CCN(S(=O)(=O)c3nnc(NC(=O)c4cccc(F)c4)s3)CC2)cc1,–,inactive: -18.9%
CCN(CC)c1ccc(NC(=O)c2cccc(F)c2)c(C)c1,active: 28.2 µM,–
COc1cccc(NC(=O)C2CCN(Cc3cnn(-c4ccccc4)c3-n3cccc3)CC2)c1,"inconclusive: 79.4 µM [inhibitor, partial curve, poor fit]",–
Cc1cc(=O)[nH]c(N/N=C/c2ccc(Br)s2)n1,–,inactive: 14.9%
N#CCCN1CCN(C(=S)c2ccc(-c3ccc(Cl)c(Cl)c3)o2)CC1,"inconclusive: 31.6 µM [inhibitor, single point]",–
N#Cc1nc(-c2cccs2)oc1N1CCN(Cc2ccccc2)CC1,"inconclusive: 3.16 µM [inhibitor, partial curve, poor fit]",–
COc1ccc(Cl)cc1/C=C1/C(=O)ON=C1C,"inconclusive: 89.1 µM [inhibitor, single point]",–
N#Cc1nc(COc2ccc(F)cc2)oc1N1CCCC1,"inconclusive: 1.58 µM [inhibitor, partial curve, poor fit]",–
CCc1ccc(C2=CC(c3cccc(OC)c3OC)n3c(nc4ccccc43)N2)cc1 (stereo unspecified),"inconclusive: 39.8 µM [inhibitor, single point]",–
CC1(C)CC(=O)c2sc(NS(=O)(=O)Cc3ccccc3)nc2C1,active: 11.2 µM,–
O=C(O)c1ccc(N=Nc2c(O)[nH]c3ccc(Br)cc23)cc1,–,inactive: 8.46% [at 2.33 µM]
CC1=NN(C(N)=S)C(=O)C1N=Nc1ccc(C)cc1C (stereo unspecified),"inconclusive: 89.1 µM [inhibitor, single point]",–
CCc1ccc(NC(=O)C2CCN(c3ccc(Sc4ccc(C)cc4)nn3)CC2)cc1,–,inactive: -1.58%
O=C(Nc1cccc(Cl)c1)c1cc(-c2ccco2)on1,"inconclusive: 89.1 µM [inhibitor, single point]",–
Cc1ccccc1Nc1nnc(SCC(=O)Nc2ccccc2[N+](=O)[O-])s1,active: 44.7 µM,–
COc1ccc(C(=O)NC(=S)Nc2cccnc2)cc1[N+](=O)[O-],"inconclusive: 79.4 µM [inhibitor, partial curve, poor fit]",–
CCC(C)NC(=O)c1ccc(N2CC3CC(C2)c2cccc(=O)n2C3)c(NC(=O)c2ccc(Br)o2)c1 (stereo unspecified),"inconclusive: 89.1 µM [inhibitor, single point]",–
NC1=NC2CS(=O)(=O)CC2S1 (stereo unspecified),"inconclusive: 39.8 µM [inhibitor, single point]",–
Cc1ccc2nc(Cl)c(C3CC(c4cccs4)=NN3C(=O)CCC(=O)O)cc2c1 (stereo unspecified),"inconclusive: 100 µM [inhibitor, single point]",–
